In publication doi:10.1101/2025.04.19.649678, “Allosteric modulation of dimeric GPR3 by ligands in the dimerization interface” (bioRxiv, 2025):

Molecular target: the molecule itself
Test: SEC; fluorescence-detection SEC (FSEC) of GPCR-mCherry from Expi293F cells solubilised in 1 % DDM, 0.1 % CHS; Zenix-C SEC-300 column, 20 mM HEPES, 150 mM NaCl, 100 μM TCEP, 0.03 % DDM, 0.003 % CHS

B1: GPR3WT (GPCR-mCherry fusion construct) (receptor, UniProt P46089 1-330, looked up)
chain: MMWGAGSPLAWLSAGSGNVNVSSVGPAEGPTGPAAPLPSPKAWDVVLCISGTLVSCENALVVAIIVGTPAFRAPMFLLVGSLAVADLLAGLGLVLHFAAVFCIGSAEMSLVLVGVLAMAFTASIGSLLAITVDRYLSLYNALTYYSETTVTRTYVMLALVWGGALGLGLLPVLAWNCLDGLTTCGVVYPLSKNHLVVLAIAFFMVFGIMLQLYAQICRIVCRHAQQIALQRHLLPASHYVATRKGIATLAVVLGAFAACWLPFTVYCLLGDAHSPPLYTYLTLLPATYNSMINPIIYAFRNQDVQKVLWAVCCCCSSSKIPFRSRSPSDV
notes: source: Expi293F, transfected, in solubilised lysate (1 % DDM, 0.1 % CHS)
stoichiometry N: 2
